According to PubChem BioAssay AID651820 (National Center for Advancing Translational Sciences (NCATS), 2012):
Screen size: about 340,000 compounds; about 12,000 (3.5%) were called active. Inconclusive results, whose numbers are uncertain, are shown with a selection of clear calls. The call rests on the fitted dose curve; in most records, active means well fitted inhibition curve with a large enough effect; inconclusive means small, poorly fitted or top-dose-only effect, or another doubt; inactive means no such curve, though single readings can be large or run the other way. Potencies of inconclusive entries are left out as doubtful fits.

Assay: qHTS Assay for Inhibitors of Hepatitis C Virus (HCV)
Settings: Huh7.5.1 HCVcc-Cre (HCVcc is cell-culture hepatitis C virus) infection, luciferase reporter, 44 h; activity change, negative = inhibition: at 41.8 µM (top of the series) unless noted
Method in brief: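 HCVcc-Cre virus at an moi near 0.5 was added right after compound to cells cultured 4 h from seeding (1,000 cells/well). Luciferase activity was determined 44 h later, 15 min after substrate addition at RT.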
On the % scale 0 is the no-effect control and ±100 the full control effect; potency means the concentration at half of the fitted maximal effect; tags describe the fitted curve by direction and shape.

SMILES	activity change, negative = inhibition	Potency
O=C(Nc1ccc(CN2CCCCC2)cc1)c1cccc(F)c1	inactive: 2.87%	
Cc1cc(C)n(CC(=O)n2c3c(c4ccccc42)CCCC3)n1		inconclusive [inhibitor, single point]
CN(CCOc1ccccc1)C(=O)c1ccc2c(=O)n3c(nc2c1)CCC3		inconclusive [inhibitor, partial curve]
CC=Cc1cc(OC)c2c(c1)C(C)C(c1ccc(O)c(OC)c1)O2 (configuration not stated)		inconclusive [inhibitor, single point]
Cc1nc2cc(OCc3cc(C(=O)NC(C)c4cn(C)nc4C)no3)ccc2s1 (configuration not stated)		inconclusive [inhibitor, partial curve, poor fit]
COC(=O)/C=C1\N/C(=N\c2nc(C)cc(C)n2)N(c2ccc(Cl)cc2)C1=O	inactive: 14%	
O=C(CSc1nc2ccccc2c(=O)n1CCCO)Nc1ccc2c(c1)OCCO2	inactive: 4.05%	
CCOC(=O)c1cc(OC(=O)c2ccccc2OC)n(-c2ccccc2)n1	inactive: 0.748%	
O=C(c1cccc2ccccc12)N1CCN(CC2CC=CCC2)CC1 (configuration not stated)		inconclusive [inhibitor, single point]
CCOC(=O)c1c(NC(=O)c2ccn(CC)n2)sc2c1CCCC2		inconclusive [inhibitor, partial curve]
CCCCNc1ncnc2sc3c(c12)CCN(CCC)C3		inconclusive [inhibitor, single point]
CCCOc1ccc(C(=O)Nc2ccccc2[N+](=O)[O-])cc1		inconclusive [inhibitor, single point]
Cc1c(C(=O)N2CC(C)OC(C)C2)sc2nc(-c3ccc(F)cc3)cn12 (configuration not stated)		inconclusive [inhibitor, partial curve]
Cc1ccc(NC(=O)Cc2ccccc2Cl)cc1S(=O)(=O)N(C)C		inconclusive [inhibitor, single point]
O=C(Nc1nc2ccc([N+](=O)[O-])cc2s1)c1ccc(S(=O)(=O)N2CCCc3ccccc32)cc1		inconclusive [inhibitor, full curve]
Cc1cc2n(n1)C(c1c[nH]c3ccccc13)Nc1ccccc1-2 (configuration not stated)		active: 3.98 µM
COc1ccc2cc(/C=N/O)c(Cl)nc2c1		inconclusive [inhibitor, partial curve]
CN(C)CCNc1oc(-c2cccc(Cl)c2)nc1C#N		inconclusive [inhibitor, full curve]
Cc1ccc(OCc2nnc(SCC(=O)c3ccccc3)n2Cc2ccco2)cc1		inconclusive [inhibitor, single point]
Cc1nc2ncnn2c(C)c1CCC(=O)Oc1ccccc1	inactive: 18.6%	
COCCNC(=O)/C(C#N)=C1\N=C(NC(=O)c2cccs2)c2ccccc21	inactive: 14.5%	
CCn1nc(C)cc1-c1nnc(Sc2ncc([N+](=O)[O-])s2)n1C		active: 3.55 µM
CCOC(=O)c1ccc(NC(=O)N2CCCCC2)cc1		inconclusive [inhibitor, single point]
O=C(N/N=C/c1ccc(O)c2ncccc12)c1cccc(Br)c1		active: 3.55 µM

SMILES	activity change, negative = inhibition	Potency
CCc1cccc2c(-c3csc(=NC)n3C)c[nH]c12		inconclusive [inhibitor, partial curve, poor fit]
COc1ccc(CCNC(=O)Cn2nnc(C(=O)Nc3cc(C)ccc3C)c2N)cc1OC		inconclusive [inhibitor, partial curve]
C=CCNC(=S)NNC(=O)COc1ccc(Br)cc1	inactive: -1.74%	
Cc1ccnc(NC(=O)CCC(=O)N(CC(=O)NCCc2ccccc2)Cc2ccco2)c1	inactive: 1.25%	
CCOC(=O)N1CCc2c(sc(NC(=O)CN3CCOCC3)c2C(=O)Nc2ccccc2)C1		inconclusive [inhibitor, full curve]
O=C(Nc1ccccc1N1CCCCC1)c1cnccn1		inconclusive [inhibitor, partial curve]
COc1ccc(NC(=O)CN(C)C(=O)CCSc2ccc(C)cc2)cc1	inactive: -0.556%	
CCOC(=O)c1cc(C)n(Cc2cccc(OC)c2OC)c1C		inconclusive [inhibitor, single point]
COc1cccc(CNC(=O)CCC2CCCN(C(=O)c3csc(C(C)C)n3)C2)c1 (configuration not stated)	inactive: -20.5%	
c1ccc(CN2CCN(C(c3ccccc3)c3ccccc3)CC2)cc1		inconclusive [inhibitor, partial curve, poor fit]
Cc1ccn2cc(C(=O)Nc3ccc4c(c3)OCCO4)nc2c1	inactive: -10.9%	
Oc1ccc(CN2CCCCC2)nc1-c1ccccc1	inactive: 1.09%	
COc1ccc(OC(=O)C(C)N2C(=O)c3ccccc3C2=O)cc1 (configuration not stated)	inactive: -0.583%	
Cc1ccc(-c2nn3c(C)nnc3s2)cc1NCc1c(F)cccc1Cl		inconclusive [inhibitor, partial curve]
N#Cc1ccccc1NC(=O)CSc1nnc(-c2ccccc2O)n1-c1ccccc1		inconclusive [inhibitor, partial curve]
S=C(NCc1ccccc1)N/N=C/c1cccs1		inconclusive [inhibitor, full curve]
COc1cc2ccccc2cc1C(=O)NCC(c1cccs1)N(C)C (configuration not stated)		inconclusive [inhibitor, partial curve]
CS(=O)(=O)c1ccc(-c2sc3ccccc3c2C(=O)NCCCN2CCOCC2)cc1	inactive: -6.81%	
CCCCn1c(SCc2ncc(-c3ccccc3)o2)nc2cc(S(N)(=O)=O)ccc21		active: 6.31 µM
C[C@H](CO)N1C[C@H](C)[C@@H](CN(C)S(=O)(=O)c2ccccc2)Oc2ccc(NC(=O)NC3CCCCC3)cc2C1=O		inconclusive [inhibitor, single point]
COc1ccc(OCC(=O)N(Cc2ccc(C)o2)C2CCS(=O)(=O)C2)cc1 (configuration not stated)	inactive: 22.7%	
Cc1nnc2ccc(-c3cccc(NC(=O)c4ccco4)c3)nn12		inconclusive [inhibitor, single point]
CCOC(=O)C1CCN(C(=O)CSc2cc(=O)n(CC)c3ccccc23)CC1		active: 11.2 µM
